# Some of the results follow.
# Tested on: T1, Caupolican (Caup) homeodomain DNA-binding domain
# T1 sequence: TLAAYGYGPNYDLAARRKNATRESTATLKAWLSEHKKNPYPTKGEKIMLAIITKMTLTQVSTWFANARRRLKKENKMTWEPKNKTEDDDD
# Experiment: PBM E-score (8-mer, recovered from the published 9-mer minima) (E-score (dimensionless, -0.5 to 0.5)); Drosophila protein; higher = stronger relative binding preference, active = 0.31 or more
# Method in brief: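 Caup's homeodomain DNA-binding domain (residues 214-303) was made by in vitro transcription and translation and applied at 100 nM to custom-designed protein binding microarrays. Each value is an enrichment score that gives relative binding preference for a short DNA word, with higher meaning stronger. The 8-mer values were recovered from published 9-mer scores, each of which was the minimum of its two constituent 8-mer scores. A cutoff of 0.31 marks candidate sites.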
row,Sequence,PBM E-score
1,CACGCTCC,inactive: -0.15
2,CGAATCCG,inactive: 0.0709
3,ATAGTCAT,inactive: 0.162
4,AAAAGCCT,inactive: -0.0858
5,CCCCCCCG,inactive: -0.355
6,ATTCGCGA,inactive: -0.00018
7,AATCCTTA,inactive: 0.0952
8,CCTTTAAC,inactive: -0.00777
9,AGCCTTTC,inactive: -0.163
10,GAAGTCAA,inactive: -0.0438
11,ATTCAACA,inactive: 0.192
12,AGCCTCCC,inactive: -0.211
13,ATACACTA,inactive: 0.194
14,CCGACTGA,inactive: -0.125
15,CACACTCA,inactive: 0.0177
16,CCGACGCC,inactive: -0.149
17,AATAGGGT,≥ 0.0597
18,CCCGGGCC,inactive: -0.329
19,ATGTGGCG,inactive: -0.0334
20,GTGTATAA,inactive: 0.202
21,GCCCTCGC,inactive: -0.235
22,ACAGTACA,active: 0.331
23,AATTGTCC,inactive: 0.0852
24,CCTGATTA,inactive: 0.0929
25,AGATCGGA,inactive: 0.0416

row,Sequence,PBM E-score
1,CCGCACAC,inactive: -0.0785
2,CAAGTATG,inactive: 0.152
3,TCGAGCGA,inactive: -0.044
4,ACACAAAG,inactive: 0.167
5,GAATAGCA,inactive: 0.135
6,GTAGTTTA,inactive: 0.247
7,CCTTTTTC,inactive: -0.0349
8,CCTGTCGC,inactive: -0.00281
9,AGAATTCT,inactive: 0.0296
10,ATGTCTGG,inactive: 0.171
11,AGGGAATG,inactive: -0.0419
12,AGACTTTA,inactive: -0.0334
13,GAAATCTA,inactive: 0.0134
14,AGCACAGA,≥ 0.0685
15,AGACAGTG,inactive: -0.00148
16,ACTTGAGG,inactive: -0.0564
17,GCTGCACA,inactive: -0.0219
18,ACCTAACA,inactive: 0.19
19,CAAGGACG,inactive: -0.0604
20,GAAACGAC,inactive: 0.0754
21,ACCCCGTA,≥ -0.0587
22,AAAAAAAC,inactive: 0.0868
23,CCGACCCA,inactive: -0.2
24,GACTGTGC,inactive: -0.0552
25,CCCCTGCG,inactive: -0.245

row,Sequence,PBM E-score
1,CAAAGGCC,inactive: -0.129
2,ACGGGCCA,inactive: -0.114
3,CGCCGGCA,inactive: -0.176
4,ACTGAACG,inactive: 0.0197
5,GTGACAGA,inactive: 0.138
6,ACGCTGGC,≥ -0.0853
7,AAGTACGC,inactive: -0.051
8,TTATGCAA,inactive: 0.0735
9,ATTGTACA,active: 0.417
10,CTTGAGGC,inactive: -0.197
11,AACAGTAC,inactive: 0.222
12,GTTTTTCA,inactive: 0.0316
13,CTCCTTAC,inactive: 0.0979
14,AGCGTCCT,inactive: -0.0748
15,AGTTCCGC,inactive: -0.114
16,ACGAGGAT,inactive: 0.063
17,ACATTAAC,inactive: 0.256
18,GGTCCTTA,inactive: -0.093
19,AGATTCCG,inactive: 0.00937
20,ACTGCTCA,inactive: -0.0173
21,CCCTCTTC,inactive: -0.206
22,ATTCCCAA,inactive: 0.0651
23,GCGGGCCC,inactive: -0.315
24,ATCCAAAT,≥ 0.151
25,TGACTCAA,inactive: 0.0741

row,Sequence,PBM E-score
1,ATCGCATA,inactive: 0.1
2,GAAAACCA,inactive: -0.0924
3,ATGGGATA,inactive: 0.063
4,GACGAACA,inactive: 0.174
5,ATTCAAGA,inactive: 0.0729
6,AGTTGGGG,inactive: -0.151
7,CCAGGCCG,inactive: -0.222
8,AGAGAGCT,inactive: -0.18
9,CGCACATA,inactive: -0.0111
10,CAAAAGGA,inactive: 0.0369
11,AAGTACAC,inactive: 0.288
12,CTCGTCTA,inactive: -0.0219
13,AACGGCTA,inactive: -0.0183
14,AAGCAATA,inactive: 0.0658
15,ATAGGCCC,inactive: -0.176
16,GTCCTCAC,inactive: -0.0666
17,CGCTAGTC,inactive: -0.0708
18,GGCAGAAA,inactive: -0.00752
19,CGTTGTAC,inactive: 0.307
20,AGGAGAAC,inactive: -0.0211
21,ATGGAGTA,inactive: 0.109
22,GCGTATAC,inactive: 0.0984
23,GGTCAGCA,inactive: -0.0274
24,CCGCATAC,inactive: -0.0411
25,ATCCAGCA,inactive: 0.0163

row,Sequence,PBM E-score
1,CTCAAGGC,inactive: -0.0901
2,ATACACTC,inactive: 0.117
3,GACGCGGA,inactive: -0.0916
4,CAACGTCG,inactive: 0.0558
5,ATCCCATG,inactive: 0.115
6,ATGTGCTC,inactive: 0.118
7,CGGGTCCC,inactive: -0.327
8,AATTCTGA,inactive: 0.0526
9,GTCCTCAA,inactive: -0.00054
10,TAAGCACA,inactive: 0.0723
11,GTGAGGGA,inactive: -0.149
12,GGTTTGGA,inactive: -0.00066
13,CCATTTTC,inactive: 0.0244
14,AGTTATGC,inactive: -0.0412
15,ACAGCACC,inactive: -0.0021
16,ACCGCCTA,inactive: -0.0971
17,ACCAAGCA,inactive: 0.042
18,ACAGCCGG,inactive: -0.0197
19,CATATTAA,inactive: 0.269
20,ATGTCTGA,inactive: 0.249
21,CAGTGAAA,inactive: 0.00891
22,ACTGTTAC,inactive: 0.192
23,AAGCTCGA,inactive: -0.00155
24,CGCATGTA,active: 0.352
25,CGTACAAG,active: 0.37

row,Sequence,PBM E-score
1,CTAATTCA,inactive: 0.0803
2,AGTTATAA,inactive: 0.164
3,ATGTCGTG,active: 0.316
4,AAGTGACG,inactive: 0.023
5,GAAAGTAA,inactive: 0.0183
6,ACCGCCAG,inactive: -0.145
7,CGCTAAAA,≥ 0.0305
8,GTGCGCAC,inactive: -0.00225
9,CCCATAGA,inactive: -0.0639
10,AAGAGCAA,inactive: -0.0342
11,ACATCGGT,≥ 0.166
12,CATTGAAC,inactive: 0.11
13,ACCTCAAG,inactive: -0.0487
14,TAAAGTAA,inactive: 0.152
15,AATGACAT,inactive: 0.298
16,AGCGTCAC,inactive: -0.104
17,CTTCATGC,inactive: -0.0768
18,GTTCTATA,inactive: 0.0984
19,AGATCAGG,inactive: -0.0683
20,CTTGACCC,inactive: -0.103
21,ATGATTCC,≥ 0.136
22,GAGTCGAA,inactive: -0.0477
23,TCCTAGGA,inactive: -0.0852
24,TGGGATAA,inactive: 0.0307
25,ACTTTACC,inactive: 0.122

row,Sequence,PBM E-score
1,TATGCACA,inactive: 0.154
2,GATATTCC,inactive: -0.00393
3,GGCGCGTA,inactive: -0.163
4,CGCATATA,inactive: 0.107
5,CCCCCCTA,inactive: -0.314
6,AGAGCTCG,inactive: -0.128
7,AGGCTTGC,inactive: -0.142
8,GTCTCGGA,inactive: -0.0363
9,ATCGGTCC,inactive: -0.177
10,CCTGATAG,inactive: -0.0364
11,ACACTTCA,≥ 0.141
12,CCAGCATA,inactive: 0.0366
13,AGTCAAAA,inactive: -0.0112
14,CTTCAGGA,inactive: -0.143
15,CTGGAAAA,inactive: 0.0154
16,ACCACAGC,inactive: -0.0244
17,GGGTCCAC,inactive: -0.23
18,AACTCGGC,inactive: 0.0026
19,ACTGCAGA,inactive: 0.0173
20,CTGCGGAC,inactive: -0.0386
21,CTAGTTAA,inactive: 0.134
22,AGATAGGC,inactive: -0.0502
23,TGGAGCCA,inactive: -0.17
24,CCTCGTCG,inactive: -0.0451
25,CAGGGGTC,inactive: -0.144

row,Sequence,PBM E-score
1,CGAGTCCG,inactive: -0.114
2,CGACAGAG,inactive: -0.0272
3,AAGACTGG,inactive: 0.0707
4,TACTAAGA,inactive: 0.127
5,CGCGTAGA,inactive: -0.0776
6,AGAAGTAT,inactive: 0.0854
7,ACCGAAGG,inactive: -0.176
8,GAGGTGGA,inactive: -0.0796
9,GCCGAGGA,inactive: -0.0401
10,AGAAGGTC,inactive: -0.00854
11,GGAGCAGA,inactive: -0.146
12,CAATAGAG,inactive: -0.0408
13,ACGTGCCG,inactive: -0.0445
14,CATACCTA,inactive: 0.108
15,AGCACGGG,inactive: -0.0941
16,CCCCCGGG,inactive: -0.317
17,TCGTGACA,inactive: 0.231
18,ACTAAGCC,inactive: -0.113
19,CCATATCG,inactive: -0.00323
20,TAGATTGA,inactive: 0.0377
21,ACCCTTCA,≥ 0.0181
22,CCTTATAG,inactive: 0.0564
23,CAATAACC,inactive: 0.0238
24,ATGCCGGA,inactive: -0.132
25,TAAGGGTA,inactive: 0.00713

row,Sequence,PBM E-score
1,GGCCGGTA,inactive: -0.076
2,TCTCCCCA,inactive: -0.186
3,TACCCACA,inactive: 0.0269
4,GAAACAGA,inactive: 0.0865
5,GTGGAACA,inactive: 0.138
6,CTGCCGGC,inactive: -0.235
7,AGAGGAGA,inactive: -0.101
8,CAACGAAC,inactive: 0.0555
9,AGAAATTA,inactive: 0.0774
10,CAAGCGGG,inactive: -0.167
11,AACTACTT,inactive: 0.164
12,GGGGTCAC,inactive: -0.239
13,CACAGGTA,inactive: 0.135
14,CTACCTAC,inactive: 0.0849
15,CTGCCGGA,inactive: -0.102
16,GCAGGCTA,inactive: -0.201
17,ACGTGGGC,inactive: -0.0878
18,CACCTTGG,inactive: -0.0652
19,AAATTGGT,inactive: 0.142
20,GTGTGGCA,inactive: -0.136
21,ATCTTCAG,inactive: 0.0301
22,ATTTCCGG,inactive: 0.0326
23,CTCGATTC,inactive: -0.0509
24,GCAAGTAA,inactive: 0.173
